Test results taken from article PMC11808136, “Screening and identification of host signaling pathways for alleviating influenza-induced production of pro-inflammatory cytokines, IP-10, IL-8, and MCP-1, using a U937 cell-based influenza model” (Frontiers in Microbiology, 2025).

Biological target: T1, JAK2 (Homo sapiens, UniProt O60674)
T1 construct: purchased KinaseProfiler (Eurofin, Brussels, Belgium)
Test: Cell-free kinase activity assay, JAK2
Format: biochemical
Details: kinase in vitro

T1 sequence (O60674 whole entry): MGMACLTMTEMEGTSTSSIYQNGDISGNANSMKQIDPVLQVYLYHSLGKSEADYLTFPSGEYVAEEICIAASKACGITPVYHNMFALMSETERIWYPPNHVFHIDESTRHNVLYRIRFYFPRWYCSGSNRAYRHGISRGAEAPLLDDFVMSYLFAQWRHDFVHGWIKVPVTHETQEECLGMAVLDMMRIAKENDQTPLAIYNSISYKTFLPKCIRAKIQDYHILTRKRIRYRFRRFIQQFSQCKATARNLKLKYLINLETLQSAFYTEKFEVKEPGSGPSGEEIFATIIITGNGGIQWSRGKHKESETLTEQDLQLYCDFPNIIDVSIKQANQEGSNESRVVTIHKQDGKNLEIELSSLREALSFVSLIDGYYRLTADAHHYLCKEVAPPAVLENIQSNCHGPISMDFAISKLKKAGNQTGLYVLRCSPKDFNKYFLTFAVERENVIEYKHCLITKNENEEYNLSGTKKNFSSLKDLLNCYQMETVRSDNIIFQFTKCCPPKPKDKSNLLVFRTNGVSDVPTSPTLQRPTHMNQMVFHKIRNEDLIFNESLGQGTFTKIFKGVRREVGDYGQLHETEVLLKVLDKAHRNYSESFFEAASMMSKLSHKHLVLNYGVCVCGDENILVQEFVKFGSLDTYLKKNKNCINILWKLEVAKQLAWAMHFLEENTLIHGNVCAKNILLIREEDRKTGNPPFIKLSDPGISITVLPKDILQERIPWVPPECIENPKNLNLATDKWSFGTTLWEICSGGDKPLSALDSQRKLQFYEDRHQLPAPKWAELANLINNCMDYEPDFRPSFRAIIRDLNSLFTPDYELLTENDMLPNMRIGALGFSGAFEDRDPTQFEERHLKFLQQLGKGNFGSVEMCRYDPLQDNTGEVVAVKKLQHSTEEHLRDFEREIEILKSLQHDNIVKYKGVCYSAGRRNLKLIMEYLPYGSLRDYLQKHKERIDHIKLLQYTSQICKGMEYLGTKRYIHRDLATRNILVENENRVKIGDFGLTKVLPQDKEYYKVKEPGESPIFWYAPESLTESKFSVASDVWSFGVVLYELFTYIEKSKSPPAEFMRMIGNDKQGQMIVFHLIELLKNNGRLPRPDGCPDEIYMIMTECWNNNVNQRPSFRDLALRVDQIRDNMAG

Row | SMILES | IC50 [nM]
1 | Cc1cc(Nc2nc(N[C@@H](C)c3ncc(F)cn3)ncc2Cl)n[nH]1 [AZD1480] | < 200
2 | Cc1ccc(C(=O)Nc2ccc(CN3CCN(C)CC3)c(C(F)(F)F)c2)cc1C#Cc1cnc2cccnn12 [Ponatinib] | > 1000
